Patent publication US6242173A, “Immunoassays for catalytically-active, serine proteases” (University of Vermont and State Agriculatural College, priority 1992, dated 2001)

Target: bovine factor Xa (Bos taurus, UniProt P00743)
Test: Inhibition of hydrolysis of S2222 by bovine Xa
Type: biochemical
Settings: column fractions / pooled peak
Procedure: PPACK.2HCl [Boeringer/Calbiochem] […] Final concentration is 13 mM.
Factor Xa: In a one mL cuvette, 22.5 μM S2222 in Hepes/saline pH=7.4 was treated with 1-10 μL of the factor Xa preparation. The mixture was stirred briefly and the absorbance at 405 nm followed in a Cary 219 UV/visible spectrophotometer. The rate was taken for the initial linear phase. Similar methods were used for thrombin (S2238), plasmin (S2251) and tPA (S2238). Hemker, H. C. (1983) in Handbook of Synthetic Substrates: For the Coagulation and Fibrinolytic Systems. Martinus Nijhogg Publishers, Boston.

| Substance | ability to inhibit the hydrolysis of S2222 by bovine Xa |
| --- | --- |
| Biotinyl-D-phenylalanyl-L-prolyl-L-arginine Chloromethyl Ketone [Biotinyl-PPACK] | positive |
| Biotinyl-ε-aminocaproyl-L-tyrosylglycyl-L-arginine chloromethyl ketone [BC-YGR-CK] | inhibited |
